The list shows a part of the results. Antibody binding of pooled human sera (four to six donors per pool; dilution not stated) to peptides of the Trypanosoma cruzi antigen TSSA on microarrays. Quantile-normalised fluorescence in arbitrary units, mean of duplicate arrays; higher = more binding. No active / inactive call. The uninfected pools are read here as the healthy donors of the same country. The strongest signals lie near the top of the scale (about 60,000).
How the values were obtained:
Assay in all cases: antibody binding signal (normalised fluorescence) (arbitrary fluorescence units); higher = stronger serum antibody binding to peptide
[1] = system: pooled sera of chronic Chagas disease patients, Bolivia
Experimental: (§1)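 Microarray of 15-residue peptides over residues 30-55 of Trypanosoma cruzi TSSAII, each with 1 to 10 substitutions at naturally variable positions, probed with one serum pool per country.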

[2] = system: pooled sera of chronic Chagas disease patients, Brazil
Experimental: as §1

[3] = system: pooled sera of chronic Chagas disease patients, Colombia
Experimental: as §1

[4] = system: pooled sera of chronic Chagas disease patients, Mexico
Experimental: as §1

[5] = system: pooled sera of chronic Chagas disease patients, USA
Experimental: as §1

[6] = system: pooled sera of uninfected people, Argentina
Experimental: as §1

[7] = system: pooled sera of uninfected people, Bolivia
Experimental: as §1

[8] = system: pooled sera of uninfected people, Brazil
Experimental: as §1

[9] = system: pooled sera of uninfected people, Colombia
Experimental: as §1

[10] = system: pooled sera of uninfected people, Mexico
Experimental: as §1

[11] = system: pooled sera of uninfected people, USA
Experimental: as §1

Sequence	antibody binding signal [1]	antibody binding signal [2]	antibody binding signal [3]	antibody binding signal [4]	antibody binding signal [5]	antibody binding signal [6]	antibody binding signal [7]	antibody binding signal [8]	antibody binding signal [9]	antibody binding signal [10]	antibody binding signal [11]
GKENKPATGETPSPP	27500	36500	11700	12900	27600	752	562	236	161	1630	626
GTENKTATGGTPSQS	1960	1780	4000	3280	2480	481	456	377	215	970	164
GTENKAATGEAPSQP	44800	45800	876	1080	30200	245	307	216	120	118	98.1
TEKKAAAGETPSPSG	238	649	423	363	3670	146	253	189	204	353	1970
SGKDKKPAAGGTPSP	210	368	3080	981	1180	102	89.5	506	739	81	91.4
PSGKEKKPAAGEAPS	3500	11000	13900	12600	14800	685	541	102	238	79.5	240
PPSGTDKKTATGEAP	20300	21000	3090	14500	18100	329	261	286	420	838	219
NKTAAGETPSPPGAS	798	2770	344	467	887	531	1170	817	596	261	1510
TSSTPPSGKDKKPAA	1030	2750	251	51000	774	461	203	106	203	103	145
PPSGTENKTAAGGAP	37900	47100	2730	6900	10200	2190	899	513	775	426	1120
KENKPATGGTPSQPG	258	12600	884	741	1970	468	328	647	201	376	148
GTDKKAAAGGAPSQS	207	217	3780	493	396	125	162	146	94.6	114	117
DNKPAAGGAPSPPGA	677	3320	1330	224	844	202	318	421	256	345	154
TDNKTAAGGAPSQSG	348	633	4740	481	306	344	312	603	203	554	206
GKDKKAATGETPSPS	281	3570	2670	2700	8810	327	113	98.2	187	94.5	793
NKAATGGTPSQSGAS	662	1700	558	399	271	912	873	862	364	1310	1100
PSGKEKKPATGGAPS	7290	9290	17700	17000	8640	473	826	123	175	109	229
ENKTATGETPSQSGA	1590	7860	262	233	7090	124	206	227	144	200	159
PSGTENKAATGETPS	28400	42400	1110	1830	17700	1100	401	267	362	291	214
STPPSGKEKKAAAGE	867	845	893	17600	1200	530	625	98.7	440	90.3	170
GKDKKPATGETPSPS	6300	18200	5400	5540	18000	168	185	115	127	383	886
GTDKKPATGGTPSQP	401	4290	6630	825	872	336	466	679	186	564	157
GKDNKPATGEAPSPP	25100	49300	2320	3330	41700	1080	972	209	294	307	137
ISTPPSGKDKKTATG	628	1210	282	38700	502	153	276	99.6	106	112	95.7
TPPSGTEKKAAAGGT	1390	23000	1690	12500	2720	949	350	2010	134	97.2	190
SGTENKPAAGETPSP	20200	35300	483	836	10100	1020	1350	211	139	256	415
GKENKAATGGAPSPS	819	6530	4970	4930	13200	401	152	517	123	132	128

Sequence	antibody binding signal [1]	antibody binding signal [2]	antibody binding signal [3]	antibody binding signal [4]	antibody binding signal [5]	antibody binding signal [6]	antibody binding signal [7]	antibody binding signal [8]	antibody binding signal [9]	antibody binding signal [10]	antibody binding signal [11]
GTENKPATGGAPSQP	19600	32200	611	2090	5590	503	2330	665	206	365	234
STPPSGTDKKAATGE	30900	35900	6290	43400	6970	787	220	395	355	2480	165
SGTENKTAAGGAPSQ	6950	12400	6880	766	3310	560	534	419	348	474	227
GTENKTATGGAPSPP	1060	763	703	1110	1140	274	315	236	220	443	172
KKTAAGEAPSQPGAS	5420	27900	268	260	4060	341	269	88.7	569	82.6	257
PPSGKDKKPATGGTP	364	642	805	40000	1360	256	285	254	236	155	173
KKPAAGETPSQSGAS	456	3460	215	169	428	259	171	94.3	150	140	290
DKKAAAGGTPSPPGA	168	190	4940	355	1520	142	92.2	1750	164	96.3	146
SGKDNKPATGGAPSQ	4770	12000	1250	1200	2830	517	1180	145	458	227	167
KENKPAAGETPSPSG	332	13500	381	513	4480	190	384	164	135	280	1900
GTENKPAAGGAPSPP	3830	6960	1440	1520	1480	418	1580	546	203	238	163
KPAAGGAPSQPGASS	248	5830	1070	294	236	228	131	149	103	111	136
KKTAAGEAPSQSGAS	5670	2510	277	511	4340	247	273	116	277	98.4	298
TEKKPAAGGAPSQPG	224	5240	5910	595	1700	197	322	563	118	251	1200
KDNKTAAGGTPSPPG	193	275	3580	235	1360	273	154	339	202	139	157
TENKPAAGGAPSPPG	1030	3680	1100	630	1130	288	340	245	203	190	294
GKDKKAAAGETPSQP	406	17600	1170	898	1180	136	90.3	123	150	92.8	93.8
EKKPAAGGTPSPPGA	244	403	5630	326	1150	185	1100	2270	193	157	1180
EKKAATGEAPSQSGA	21000	32000	300	678	23800	815	730	134	965	287	969
KKAAAGGAPSPPGAS	219	176	2130	310	559	242	167	134	110	80.2	200
SGKDKKTAAGEAPSQ	2020	1400	1020	889	4200	178	251	101	467	93.2	91.8
KEKKTAAGGTPSPPG	296	184	3250	218	1550	97.9	84.9	224	182	73.3	120
GKDNKPATGGTPSQS	260	571	899	1370	1230	282	578	223	151	201	120
KEKKPAAGEAPSPSG	225	746	133	147	10900	122	92.9	98.3	76.2	65.9	359
TSSTPPSGTDNKPAA	45400	51600	4890	11400	30700	2870	832	817	418	901	920
TPPSGTEKKTAAGET	10300	22600	310	2970	1360	644	261	349	1160	168	202
GKENKTATGETPSPP	2200	16600	14000	12200	21000	469	276	134	181	264	607

Reference: the supplement of paper PMC10441789
